# Results as given in the supplement of paper PMC8728848.
# The list shows a part of the results.
# How the values were obtained:
# Test in all cases: glycan array binding signal (z-score within array); higher = stronger binding
# Details in all cases: glycan notation: IUPAC condensed, linker removed
# [1] = molecular target: Fuc(a1-2)[Gal(a1-3)]Gal(b1-4)GlcNAc(b1-2)Man(a1-3)[Fuc(a1-2)[Gal(a1-3)]Gal(b1-4)GlcNAc(b1-2)Man(a1-6)]Man(b1-4)GlcNAc(b1-4)[Fuc(a1-6)]GlcNAc
# Summary of the method: (§1)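 Glycan array data came from 3228 arrays in the Consortium for Functional Glycomics database, and only arrays with an available protein sequence were kept. Glycan names were put into IUPAC-condensed notation, and columns mapping to the same glycan were averaged. The binding signal is a within-array Z-score, averaged across arrays of one protein sequence run at different concentrations or buffers and across linkers. A negative Z-score can be read as non-binding.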
# [2] = molecular target: Fuc(a1-2)[Gal(a1-3)]Gal(b1-4)GlcNAc(b1-3)GalNAc
# Summary of the method: as §1
# [3] = molecular target: Fuc(a1-2)[Gal(a1-3)]Gal(b1-4)GlcNAc(b1-3)[Fuc(a1-2)[Gal(a1-3)]Gal(b1-4)GlcNAc(b1-6)]GalNAc
# Summary of the method: as §1
# [4] = molecular target: Fuc(a1-2)[Gal(a1-3)]Gal(b1-4)GlcNAc(b1-6)GalNAc
# Summary of the method: as §1
# [5] = molecular target: Fuc(a1-2)[Gal(a1-3)]Gal(b1-4)[Fuc(a1-3)]Glc
# Summary of the method: as §1
# [6] = molecular target: Fuc(a1-2)[Gal(a1-3)]Gal(b1-4)[Fuc(a1-3)]GlcNAc
# Summary of the method: as §1
# [7] = molecular target: Fuc(a1-2)[Gal(a1-3)]Gal(b1-4)[Fuc(a1-3)]GlcNAc(b1-3)GalNAc
# Summary of the method: as §1
# [8] = molecular target: Fuc(a1-2)[Gal(a1-4)]Gal(b1-4)GlcNAc
# Summary of the method: as §1
# [9] = molecular target: Fuc(a1-2)[GalNAc(a1-3)]Gal
# Summary of the method: as §1
# [10] = molecular target: Fuc(a1-2)[GalNAc(a1-3)]Gal(b1-3)GalNAc(a1-3)[Fuc(a1-2)]Gal(b1-4)GlcNAc
# Summary of the method: as §1
# [11] = molecular target: Fuc(a1-2)[GalNAc(a1-3)]Gal(b1-3)GalNAc(b1-3)Gal(a1-4)Gal(b1-4)Glc
# Summary of the method: as §1
# [12] = molecular target: Fuc(a1-2)[GalNAc(a1-3)]Gal(b1-3)GlcNAc
# Summary of the method: as §1
# [13] = molecular target: Fuc(a1-2)[GalNAc(a1-3)]Gal(b1-3)GlcNAc(b1-2)Man(a1-3)[Fuc(a1-2)[GalNAc(a1-3)]Gal(b1-3)GlcNAc(b1-2)Man(a1-6)]Man(b1-4)GlcNAc(b1-4)GlcNAc
# Summary of the method: as §1
# [14] = molecular target: Fuc(a1-2)[GalNAc(a1-3)]Gal(b1-3)GlcNAc(b1-2)Man(a1-3)[Fuc(a1-2)[GalNAc(a1-3)]Gal(b1-3)GlcNAc(b1-2)Man(a1-6)]Man(b1-4)GlcNAc(b1-4)[Fuc(a1-6)]GlcNAc
# Summary of the method: as §1
# [15] = molecular target: Fuc(a1-2)[GalNAc(a1-3)]Gal(b1-3)GlcNAc(b1-3)GalNAc
# Summary of the method: as §1
# [16] = molecular target: Fuc(a1-2)[GalNAc(a1-3)]Gal(b1-3)GlcNAc(b1-6)GalNAc
# Summary of the method: as §1
# [17] = molecular target: Fuc(a1-2)[GalNAc(a1-3)]Gal(b1-4)Glc
# Summary of the method: as §1
# [18] = molecular target: Fuc(a1-2)[GalNAc(a1-3)]Gal(b1-4)GlcNAc
# Summary of the method: as §1
# [19] = molecular target: Fuc(a1-2)[GalNAc(a1-3)]Gal(b1-4)GlcNAc(b1-2)Man
# Summary of the method: as §1
# [20] = molecular target: Fuc(a1-2)[GalNAc(a1-3)]Gal(b1-4)GlcNAc(b1-2)Man(a1-3)[Fuc(a1-2)[GalNAc(a1-3)]Gal(b1-4)GlcNAc(b1-2)Man(a1-6)]Man(b1-4)GlcNAc(b1-4)GlcNAc
# Summary of the method: as §1
# [21] = molecular target: Fuc(a1-2)[GalNAc(a1-3)]Gal(b1-4)GlcNAc(b1-2)Man(a1-3)[Fuc(a1-2)[GalNAc(a1-3)]Gal(b1-4)GlcNAc(b1-2)Man(a1-6)]Man(b1-4)GlcNAc(b1-4)[Fuc(a1-6)]GlcNAc
# Summary of the method: as §1
# [22] = molecular target: Fuc(a1-2)[GalNAc(a1-3)]Gal(b1-4)GlcNAc(b1-3)Gal(b1-4)GlcNAc
# Summary of the method: as §1
# [23] = molecular target: Fuc(a1-2)[GalNAc(a1-3)]Gal(b1-4)GlcNAc(b1-3)Gal(b1-4)GlcNAc(b1-3)Gal(b1-4)GlcNAc
# Summary of the method: as §1
# [24] = molecular target: Fuc(a1-2)[GalNAc(a1-3)]Gal(b1-4)GlcNAc(b1-3)GalNAc
# Summary of the method: as §1
# [25] = molecular target: Fuc(a1-2)[GalNAc(a1-3)]Gal(b1-4)GlcNAc(b1-3)[Fuc(a1-2)[GalNAc(a1-3)]Gal(b1-4)GlcNAc(b1-6)]GalNAc
# Summary of the method: as §1
# [26] = molecular target: Fuc(a1-2)[GalNAc(a1-3)]Gal(b1-4)GlcNAc(b1-6)GalNAc
# Summary of the method: as §1
# [27] = molecular target: Fuc(a1-2)[GalNAc(a1-3)]Gal(b1-4)[Fuc(a1-3)]GlcNAc
# Summary of the method: as §1
# [28] = molecular target: Fuc(a1-2)[GalNAc(a1-3)]Gal(b1-4)[Fuc(a1-3)]GlcNAc(b1-3)GalNAc
# Summary of the method: as §1
# [29] = molecular target: Fuc(a1-2)[GalNAc(a1-4)]Gal(b1-4)GlcNAc
# Summary of the method: as §1
# [30] = molecular target: Fuc(a1-2)[GalNAc(b1-3)]Gal
# Summary of the method: as §1
# [31] = molecular target: Fuc(a1-3)GlcNAc
# Summary of the method: as §1
# [32] = molecular target: Fuc(a1-3)[Gal(b1-4)]Glc6S
# Summary of the method: as §1
# [33] = molecular target: Fuc(a1-3)[Gal(b1-4)]GlcNAc
# Summary of the method: as §1
# [34] = molecular target: Fuc(a1-3)[Gal(b1-4)]GlcNAc(b1-2)Man
# Summary of the method: as §1
# [35] = molecular target: Fuc(a1-3)[Gal(b1-4)]GlcNAc(b1-2)Man(a1-3)[Fuc(a1-3)[Gal(b1-4)]GlcNAc(b1-2)Man(a1-6)]Man(b1-4)GlcNAc(b1-4)GlcNAc
# Summary of the method: as §1
# [36] = molecular target: Fuc(a1-3)[Gal(b1-4)]GlcNAc(b1-2)Man(a1-3)[Fuc(a1-3)[Gal(b1-4)]GlcNAc(b1-2)Man(a1-6)]Man(b1-4)GlcNAc(b1-4)[Fuc(a1-6)]GlcNAc
# Summary of the method: as §1
# [37] = molecular target: Fuc(a1-3)[Gal(b1-4)]GlcNAc(b1-3)Gal(b1-3)[Fuc(a1-4)]GlcNAc
# Summary of the method: as §1
binder,measurement,setting,value
PX14367A-bth-493-35-493 (Bacteroides thetaiotaomicron) (protein) VSSDQVAVAGNAERLFNGAWYNLFEYGTTYANIGYRALQCQDDMMASDVVSRPKYGFNSSYQFNDVAIPSDGRTSFAWYLIYKTIDNCNTAISIKGDSEELRQAQGQALALRAFCYLHLVQHYQFTYLKDKDAPCVPIYTEPTTSGTKPKGKSTVAQVYQQIFDDLNLAQDYLTNYVRKGDGQKFKPNTDVVNGLMARAYLLTGQWGEAAKAAEAARKGYSLMTTTAEYEGFNNISNKEWIWGSPQTLSQSDASYNFYYLDATYVGAYSSFMADPHLMDTFVKGDIRLPLFQWMREGYLGYKKFHMRSDDTADLVLMRSAEMYLIEAEAKVRDGVALDQAVAPLNTLRTARGVGNYDVTGKTKEQVIDEILMERRRELWGEGFGITDVLRNQKAVERMALSEDMQKTEVDCWQEGGSFAKRNPLGHWFLNFPDGKAFSANSSYYLYAIPEKEINANPNL,glycan array binding signal (z-score),[1],-0.445
same,glycan array binding signal (z-score),[2],-0.206
same,glycan array binding signal (z-score),[3],-0.31
same,glycan array binding signal (z-score),[4],-0.778
same,glycan array binding signal (z-score),[5],-0.524
same,glycan array binding signal (z-score),[6],-0.374
same,glycan array binding signal (z-score),[7],-0.426
same,glycan array binding signal (z-score),[8],-0.256
same,glycan array binding signal (z-score),[9],-0.542
same,glycan array binding signal (z-score),[10],-0.503
same,glycan array binding signal (z-score),[11],-0.668
same,glycan array binding signal (z-score),[12],-0.371
same,glycan array binding signal (z-score),[13],0.408
same,glycan array binding signal (z-score),[14],-0.109
same,glycan array binding signal (z-score),[15],-0.441
same,glycan array binding signal (z-score),[16],-0.358
same,glycan array binding signal (z-score),[17],-0.501
same,glycan array binding signal (z-score),[18],-0.494
same,glycan array binding signal (z-score),[19],-0.753
same,glycan array binding signal (z-score),[20],0.1
same,glycan array binding signal (z-score),[21],0.207
same,glycan array binding signal (z-score),[22],0.035
same,glycan array binding signal (z-score),[23],-0.197
same,glycan array binding signal (z-score),[24],-0.479
same,glycan array binding signal (z-score),[25],-0.525
same,glycan array binding signal (z-score),[26],0.92
same,glycan array binding signal (z-score),[27],-0.482
same,glycan array binding signal (z-score),[28],0.737
same,glycan array binding signal (z-score),[29],-0.295
same,glycan array binding signal (z-score),[30],0.042
same,glycan array binding signal (z-score),[31],-0.507
same,glycan array binding signal (z-score),[32],0.535
same,glycan array binding signal (z-score),[33],-0.378
same,glycan array binding signal (z-score),[34],0.1
same,glycan array binding signal (z-score),[35],-0.409
same,glycan array binding signal (z-score),[36],-0.25
same,glycan array binding signal (z-score),[37],-0.481
